Laboratory results taken from PubChem BioAssay AID686978 (National Center for Advancing Translational Sciences (NCATS), 2013).
Values joined by “and” are separate entries in the source; they are usually repeats but may differ in a detail not shown here. Equal entries are not always repeated. In all, about 420,000 compounds went through this assay and about 64,000 (15%) were called active. The shares of active, inactive and inconclusive entries below differ from those in the screen. Calls follow the shape of the dose curve; as a rule, active = well fitted inhibition curve with a large enough effect; inconclusive = small, poorly fitted or top-dose-only effect; inactive = flat fitted curve, though single readings scatter. Potencies of inconclusive entries are doubtful fits and often do not repeat.

test: qHTS for Inhibitors of human tyrosyl-DNA phosphodiesterase 1 (TDP1): qHTS in cells in absence of CPT; conditions: DT40 Tdp1-/- hTDP1 cells, no CPT, ATP luminescence, 48 h; activity change, negative = growth inhibition: at 46.2 µM (top of the series) unless noted; also: nearly all actives have a fitted effect of over 55% in size
Method in brief: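 Cells were dispensed at 400 per well, compounds added by pin tool, plates incubated ≥48 hr at 37 °C, then CellTiter-Glo added for 30 min at room temperature before luminescence reading. Line: DT40 Tdp1-/- complemented with hTDP1; camptothecin omitted.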
% is scaled to controls: 0 for no effect and ±100 for the full control effect; potency is read from the fitted curve at half-maximal effect; tags tell the direction and shape of the fitted curve.

| Structure (SMILES) | Potency | activity change, negative = growth inhibition |
| --- | --- | --- |
| CCc1ccc(Nc2nnc(SCC(=O)Nc3cccc(S(=O)(=O)NC4=NCCCCC4)c3)s2)cc1 | inconclusive: 16.4 µM [inhibitor, partial curve, poor fit] |  |
| Cn1c(NCc2ccc3occc3c2)nc2cc(-c3ccc(F)cc3)sc2c1=O | inactive |  |
| CCCC(=O)Nc1nnc(-c2ccc3c(c2)OCO3)s1 | inactive |  |
| Cc1ccc([N+](=O)[O-])cc1S(=O)(=O)Nc1cccc(-c2ccc(N3CCCC3)nn2)c1 | inconclusive: 25.9 µM [inhibitor, single point] |  |
| COc1cc(OC)c(N(C)C(=O)c2cn(C3CCCC3)c(=O)c3c2c2ccccc2n3C)cc1Cl | active: 8.2 µM |  |
| O=C(Nc1ccc(S(=O)(=O)N2CCOCC2)cc1)c1ccc([N+](=O)[O-])o1 | active: 2.59 µM |  |
| Cc1ccccc1C(=O)OCc1cc(=O)n2nc(C(C)C)sc2n1 | inactive |  |
| COc1ccc(C(=O)Nc2cccc(S(=O)(=O)N3CCCC3)c2)cc1S(=O)(=O)N1CCOCC1 | inconclusive: 29.1 µM [inhibitor, single point] |  |
| Cc1cccc2sc(N(CCCN(C)C)C(=O)CCS(=O)(=O)c3ccccc3)nc12 | active: 1.64 µM |  |
| COc1ccc(-c2nc(-c3ccc(Br)cc3)no2)c(OC)c1 | inactive |  |
| CCN1CCN(C(c2ccc(C)cc2)c2c(O)cc(C)n(Cc3ccco3)c2=O)CC1 (stereo unspecified) | inactive |  |
| CCN(CC)S(=O)(=O)c1ccc(NC(=S)Nc2ccccc2)cc1 | inconclusive: 20.6 µM [inhibitor, partial curve] |  |
| Cc1cc(C)n2nc(SCC(=O)N/N=C/c3cccc(Br)c3)nc2n1 | inconclusive: 29.1 µM [inhibitor, single point] |  |
| COc1ccc(-n2nc(C(=O)O)c(=O)n(C)c2=O)cc1 | inconclusive: 23.1 µM [inhibitor, single point] |  |
| CC(C)CCCC(C)CCOC(=O)CN1CCCC1 (stereo unspecified) | inactive |  |
| Cc1ccc(C(=O)Nc2ccc(N3CCOCC3)nc2N2CCOCC2)cc1 |  | inconclusive: -32.6% [inhibitor] |
| CCCS(=O)(=O)N1CCN(Cc2ccc([N+](=O)[O-])cc2)CC1 | inconclusive: 29.1 µM [inhibitor, single point] |  |
| Cc1ccccc1Nc1nn2c(=O)c3ccc(C(=O)NCCc4ccc(Cl)cc4)cc3nc2s1 | active: 14.6 µM |  |
| Cc1ccc(S(=O)(=O)N(C)C)cc1NC(=O)C(C)OC(=O)/C=C/c1cccs1 (stereo unspecified) | inactive |  |
| NS(=O)(=O)c1ccc(NC(=O)COC(=O)CSc2n[nH]c(-c3ccccc3)n2)cc1 | inactive |  |
| Cc1c(Cl)cccc1NC(=S)N(Cc1cccnc1)Cc1ccccc1Cl | inconclusive: 23.1 µM [inhibitor, partial curve] |  |
| Cc1cccc(OCc2nnc(SCC(=O)O)n2Cc2ccccc2)c1 | inactive |  |
| Cc1ccccc1CNC(=O)c1oc2c(c1C)-c1[nH]ncc1CC2 | inconclusive: 23.1 µM [inhibitor, single point] |  |
| O=c1[nH]c(CN2CCOCC2)nc2cc(Cl)ccc12 | inactive |  |

| Structure (SMILES) | Potency | activity change, negative = growth inhibition |
| --- | --- | --- |
| CC1(C(=O)NCc2cccs2)CCN1C(=O)Cc1ccc(Cl)cc1Cl (stereo unspecified) | inconclusive: 18.4 µM [inhibitor, single point] |  |
| COc1ccc(NC(=O)c2ccc3nccnc3c2)cc1 | inconclusive: 32.6 µM [inhibitor, single point] |  |
| CC1(C(=O)NCc2cccc3ccccc23)CCN1C(=O)C1(c2ccccc2)CC1 (stereo unspecified) | inconclusive: 20.6 µM [inhibitor, partial curve] |  |
| COc1ccc(C(Cl)=C(C=O)c2ccc(OC)c(OC)c2)cc1OC | inconclusive: 16.4 µM [inhibitor, single point] |  |
| COc1ccc(Cl)cc1NC(=O)CN1C(=O)C(C)(C)c2cc(S(=O)(=O)N3CCCCC3)ccc21 | inconclusive: 29.1 µM [inhibitor, single point] |  |
| Cc1ccc(S(=O)(=O)N2CCC(=O)N(C(COCc3ccccc3)Cc3ccccc3)CC2)cc1 (stereo unspecified) | active: 11.6 µM |  |
| C=CCn1c(COc2ccccc2F)nnc1SCCN1C(=O)c2ccccc2C1=O | inconclusive: 11.6 µM [inhibitor, partial curve, poor fit] |  |
| CC(C)C1C(=O)Nc2ccc(S(=O)(=O)NCCc3ccc(Cl)cc3)cc21 (stereo unspecified) | active: 23.1 µM |  |
| Cc1cc(C)nc(SCc2nnc(SCc3ccccc3Cl)o2)n1 | inconclusive: 29.1 µM [inhibitor, single point] |  |
| CSc1cccc(N2CC(C(=O)NCCC3=CCCCC3)CC2=O)c1 (stereo unspecified) | inconclusive: 5.17 µM [inhibitor, partial curve, poor fit] |  |
| O=C(CCCCCNC(=O)c1ccccc1Br)N=Nc1c(O)[nH]c2ccccc12 | inconclusive: 23.1 µM [inhibitor, single point] |  |
| O=C(NC1CCCCC1)N1CCN(c2ccc(Cl)cc2)CC1 | inconclusive: 25.9 µM [inhibitor, single point] |  |
| C[C@H]1CN(CCc2ccccc2)C(=O)[C@@H]1CC(=O)Nc1ccccc1 | inconclusive: 23.1 µM [inhibitor, single point] |  |
| O=C(N=C1SC2CS(=O)(=O)CC2N1c1ccc(Cl)c(Cl)c1)C1CCCO1 (stereo unspecified) | inactive |  |
| Cc1ccc(NC(=O)c2cc(-c3cc(Cl)ccc3O)n[nH]2)cc1C | inactive |  |
| COc1ccc(N=c2oc3cc(O)ccc3cc2C(=O)NCC2CCCO2)c(OC)c1 (stereo unspecified) | inconclusive: 8.2 µM [inhibitor, partial curve] |  |
| Cc1cccc(-n2ncc(C(=O)N3CCN(c4ccc(C)cc4C)CC3)c2C2CCN(C(=O)OC(C)(C)C)CC2)c1 | inactive |  |
| CCc1ccc(N(CC(=O)NCc2ccc(OC)cc2)C(=O)CCC(=O)Nc2ccccn2)cc1 | inconclusive: 29.1 µM [inhibitor, single point] |  |
| CN(CC(=O)Nc1ccccc1Br)C(=O)CN1CCN(Cc2cccc(Cl)c2)CC1 | inconclusive: 20.6 µM [inhibitor, single point] |  |
| COC(=O)[C@@]12C[C@@H](CC(=O)N3CCCC3)C(=O)N(Cc3cccc4ccccc34)C1=CCC(C)(C)C2 | inconclusive: 20.6 µM [inhibitor, single point] |  |
| CCN1c2ccccc2-c2nc(SCC(=O)NCc3ccc(Cl)cc3)ncc2S1(=O)=O | inconclusive: 18.4 µM [inhibitor, single point] |  |
| O=C(CSc1nnc(NC(=O)C2CC2)s1)Nc1ccccc1 | inactive |  |
| Cc1cc(-c2ccc(NS(=O)(=O)c3ccccc3)c(C)c2)ccc1NS(=O)(=O)c1ccccc1 | active: 11.6 µM |  |
| Cc1snc(SCC(=O)N/N=C(\N)COc2ccc(F)cc2)c1C#N | inconclusive: 18.4 µM [inhibitor, single point] |  |

| Structure (SMILES) | Potency | activity change, negative = growth inhibition |
| --- | --- | --- |
| CCn1cc(C(=O)N2CCc3ccccc32)c(=O)c2cc(S(=O)(=O)N(C)C3CCCCC3)ccc21 | inconclusive: 29.1 µM [inhibitor, single point] |  |
| COc1nc(-c2ccccc2)nnc1-c1ccccc1 | inactive |  |
| CCN1CCN(S(=O)(=O)c2c(C)cc(C)cc2C)CC1 | inactive |  |
| Cn1c(=O)c2c(nc(NCCOc3ccc(C(C)(C)C)cc3)n2C)n(C)c1=O | active: 1.84 µM |  |
| CCC(=O)N1CCCC(C)(C(=O)Nc2ccc3scnc3c2)C1 (stereo unspecified) | inactive |  |
| Cc1ccc(C(=O)CN2/C(=C(\O)c3ccccc3)C(=O)c3ccccc3S2(=O)=O)c(C)c1 | active: 16.4 µM |  |
| c1ccc(CCn2c(SCc3ccccc3)nnc2-c2ccncc2)cc1 | inactive |  |
| Cc1c(C)n(Cc2ccc(F)cc2)c2ccc(C(=O)NCc3ccco3)cc12 | inconclusive: 18.4 µM [inhibitor, single point] |  |
| O=C1[C@@H]2Cc3c([nH]c4ccccc34)C(c3ccc(Cl)cc3)N2C(=O)CN1CCO (stereo partly specified) | inactive |  |
| O=C(c1cccc(Cl)c1)N1CCN(C(=O)c2ccccc2F)CC1 | inactive |  |
| Cc1ccc(/C=C\c2nccc3c2[nH]c2ccccc23)cc1 | inconclusive: 22.4 µM [inhibitor, single point] |  |
| c1ccc(Nc2n[nH]nc2-c2ccccc2)cc1 | inactive |  |
| CSc1ncc(C(=O)N2CCN(c3cccc(Cl)c3)CC2)c(C)n1 | active: 16.4 µM |  |
| COc1ccc(-c2cc(C)no2)cc1S(=O)(=O)N(C)c1cccc(C)c1 | inconclusive: 29.1 µM [inhibitor, single point] |  |
| Cc1cc(C)nc(NC(=O)c2c(F)c(F)c(F)c(C(=O)Nc3cc(C)cc(C)n3)c2F)c1 | active: 16.4 µM |  |
| O=C(CCC(=O)N1CCN(S(=O)(=O)c2ccc([N+](=O)[O-])cc2)CC1)N1CCOCC1 | inactive |  |
| O=[N+]([O-])c1cccc(OCCCN2CCC(Cc3ccccc3)CC2)c1 | inconclusive: 5.17 µM [inhibitor, single point] |  |
| Cn1c2ccccc2c(=O)c2ccc(F)cc21 | inconclusive: 12.6 µM [inhibitor, partial curve] and inconclusive: 25.9 µM [inhibitor, single point] |  |
| O=C(CC1C(=O)N(c2ccccc2)C(=O)N1CCc1cccs1)Nc1ccc(F)cc1 (stereo unspecified) | inconclusive: 6.51 µM [inhibitor, full curve, poor fit] |  |
| O=C(CSc1ncc(-c2ccccc2)[nH]1)Nc1ccc(Cl)cc1 | inconclusive: 16.4 µM [inhibitor, single point] |  |
| CC(=O)NCCn1c(SCc2ccccc2C)nc2ccccc2c1=O | active: 16.4 µM |  |
| Cn1c(=O)c2c(ncn2CC(O)CNc2cccc(Cl)c2)n(C)c1=O (stereo unspecified) | inconclusive: 23.1 µM [inhibitor, partial curve] |  |
| C=CCNC(=S)N1CCN(c2ncc(C(F)(F)F)cc2Cl)CC1 | inconclusive: 18.4 µM [inhibitor, single point] |  |
